Molecules are shown by their SMILES. The campaign covered roughly 52,000 compounds. About 1,700 (3.3%) were called active. No stated cut-off is given here; in the data, active means survival mostly below about 52% (no sharp cut-off); inactive means mostly above about 56%. The list shows a part of the results.

This assay deals with Wild type. As to the kind of experiment: growth inhibition of S. aureus wild type versus tarO mutant, primary screen, teichoic acid synthesis inhibitors, RN4220, OD600 (AID 463173). The settings on record: S. aureus RN4220 wild type/DeltatarO growth, OD600, 18 h, stronger effect = lower value, screened at 18.75 µg/mL (by protocol).
`O=C(Nc1cc2c(cc1C(=O)c1cccc(Br)c1)OCCO2)c1ccccc1F`: the survival was inactive: 56%. Next, `CN(C(=O)Cn1cnc2onc(-c3ccc(F)cc3)c2c1=O)c1ccccc1Cl`: inactive: 71%; `Cc1cc(C)cc(-n2c(C)cc(C(=O)C(=O)Nc3nnc(C)s3)c2C)c1`: inactive: 101%; `Cc1ccc(-n2c(=O)c3ccc(C(=O)NCc4ccco4)cc3n(CC(=O)Nc3ccccc3C(F)(F)F)c2=O)cc1`: inactive: 87%. As for `CCOc1ccccc1CNC(=O)c1ccc(NC(=O)N2CC(C)Sc3ccccc32)cc1` (centres undefined), the figure is inactive: 77%. Next, `CCOc1ccc(C(=O)NCc2nc3cccnc3n2Cc2cccc(OC)c2)cc1`: inactive: 72%; `COc1ccc2cc3c(N)c(C(=O)Nc4ncc(C)s4)sc3nc2c1`: inactive: 105%; `CCCN(CCC)C(=O)Cn1c(SCc2cccc(C(F)(F)F)c2)nc2cccnc21`: inactive: 80%. As for `O=C(NC1(C(F)(F)F)C(=O)Nc2c1c(=O)[nH]c(=O)n2-c1ccccc1)c1ccccc1` (centres undefined), the survival was inactive: 85%.

As for `CN1CCN(C(=O)c2ccc(C3SCC(=O)N3Cc3ccco3)cc2)CC1` (centres undefined), the survival was inactive: 104%.

For `CCOC(=O)c1[nH]c(=O)[nH]c1CSc1ccccn1`, the survival was inactive: 111%. As for `N#Cc1ccccc1NC(=O)C(=O)NCCc1csc2nc(-c3cccc(F)c3)nn12`, the figure is inactive: 81%; as for `Cc1cccc(NC(=O)N2CCN(C)c3ncccc32)c1C`, inactive: 92%. Next, `COc1ccc(OC)c(CNC(=O)CN(c2ccc(C)cc2)S(=O)(=O)N(C)C)c1`: inactive: 80%. Regarding `O=S(=O)(Nc1cccc(-c2ccc(N3CCCC3)nn2)c1)c1cc(F)ccc1F`, the survival is inactive: 79%. As for `CCOc1ccc(S(=O)(=O)Nc2ccc(OC)c(Cl)c2)c2cccnc12`, the figure is inactive: 70%. As for `Cc1cccc(OCCSc2nc3ccccc3n2CC(=O)N2CCOCC2)c1C`, the figure is inactive: 75%. Next, `CCOc1ccc(C2C(C(N)=O)=C(C)Nc3nc(-c4cccc(Cl)c4)nn32)cc1OC` (centres undefined): inactive: 94%; `Cc1ccc(NC(=O)C2CCCN(S(=O)(=O)c3c(C)nn(C)c3C)C2)c(C)c1` (centres undefined): inactive: 76%; `CCN1C(=O)c2ccccc2S(=O)c2ccc(C(=O)NCc3ccccc3OC)cc21` (centres undefined): inactive: 82%.

On to `CCOC(=O)N1CCN(Cc2nc3cc(NC(=O)c4ccc([N+](=O)[O-])cc4)ccc3n2C(C)C)CC1`, for which the survival was inactive: 84%. Next, `CCCCCOc1ccc(NC(=O)Cn2c(-c3cncs3)nc3ccccc32)cc1`: inactive: 97%; `CC(=O)NC(NC(C)=O)c1ccccc1`: inactive: 103%. As for `COc1cccc(CNC(=O)Cn2c(SCC(=O)Nc3ccc(C)c(C)c3)nc3ccccc32)c1`, the figure is inactive: 76%.

Values taken from PubChem BioAssay AID463173 (ICCB-Longwood Screening Facility, Harvard Medical School, 2010).
